# Reference: the supplement of paper PMC12632987
# Over roughly 4,500 sequences, “median log2 fold change of GCK-ALFA target abundance (FLAG IP / Myc IP barcode read proportion)” has its median near 0.078; the lowest 2% begin near -0.6. This is one part of the list.
# B1: GBRAP_26_5426 (protein)
# chain: IEEIFKEMIDEIEAAADELLDPELAAALRAIAATLAEEVLERVEEENLSVEEIKEELEKMVEELVEEAKELGVDEEKIEKLEKAARKAAEKAVERIEKEK
# B2: GBRAP_184_5094 (protein)
# chain: KLLEELIEAKTPEEAKEKLKKVLKKAAEQKADLNILVDVEGLDVETAIELLDLVGAALKAGKVKNVTVGFAEEFTEEEIDKILERADELGVKVTVAIKEE
# B3: GBRAP_11_2762 (protein)
# chain: MKEKYERLAELAERAAELVDRLLAEGVDDAELLAELERLLRELREETKKIGDKALEKDVEIAEELFRALQADPANAEAYARELRAQLRVLAGQYLLLAEE
# B4: GBRAP_128_3597 (protein)
# chain: SVEEVREWTRATLEEMKTADAAERRALAQALMDRFLTLSREEQEALVETIEELAPELSAEDLEILADAARAARPRADPYAANLLAGLEVDLLNEALEKEE
# B5: GBRAP_11_2701 (protein)
# chain: KKEELKKAAELAEKLAETLERLLEEGVDNEELRAEAEKLLKELTKLVEKYGDKALQKLAKIIKELWEEALADPENAEAYLREMLAAARVLAGQFLLEIEE
# B6: GBRAP_128_3387 (protein)
# chain: SQEELVEEAKELIEEIVEADVEEARELARELMELLGKLSLEDAEKVVEYLKEQFPKLTAEKLEVVADVLREQRPKFDPERQNLVADAEVEALNAAEEKEE
# B7: GBRAP_52_6341 (protein)
# chain: MEEEVERYAREIAAAVAAGDFDRAVALTREAARRFTREEVRRMMRLTAELMAAALPDDEDRVMEAAFKMADVIEEELGDEVLADDFEAYTARLLVERRQA
# B8: GBRAP_11_2841 (protein)
# chain: SKEKLEELAKRAEAIAKELAALIASGNPSQAQLQALKAKVEALLEEVKKHASKSSQKIAQIALDDINKAIADPEKQQEYLNNALAAVRVLAGDLLLEIEE
# B9: GBRAP_52_6244 (protein)
# chain: MEERLRKLAAELLALVRAGRLEEARKLAKRIAEELNEEELRLFIDEFAELARQARPEDVDAVWRAAEILAEALEEAGKPEILVDDLEARTARAVAEVLAR
# B10: GBRAP_125_3051 (protein)
# chain: ALEAAIEALAALARRLGLSEEEVEELAELARRHGVKGALIALLLAEGEEEAAELAAELSEEAVIAVLLELRAWLEAHPDATPEEVLARLLELLKAALAAE
# B11: GBRAP_184_5356 (protein)
# chain: MTREVVIEADTIEEAIAKLRAAAAEAAAAGADLAVLIKVPINTVEDAEALIAALGEIQAAGVRIAVAGIEGVSNDEAIIDTLVDGAEAAGIRVVLALDEE
# B12: GBRAP_150_3903 (protein)
# chain: DLETLLILTSTAIDILEAILDGHYELLPHAVKVMKAALEEAENISEEVKELAKKALEHVEKALKLLKEGGKEEDIKAAVQKALELAEKLEEKIEKLIEEK
# B13: GBRAP_184_5264 (protein)
# chain: KVLERTVKAENVEELKAKLAEIRKEALATGADVIILLEVEELTEEMIDALFAQLKALRDAGYKGRITVGIDADLTEEMIDYVLKKADEAGVNVVVAISEE
# B14: GBRAP_106_2556 (protein)
# chain: ARAAALEAALAKARAAAAAERAATDAWLAAHRSELTPEEIEAIRTYTAKAAVGRLLRALVDAGLLTPEQARAIEREVLAQRGLDFEARLARAVALAREAA
# B15: GBRAP_128_3336 (protein)
# chain: MDEEKVKEIEELAEKIIEADDEEAKELAKKIAEKLVTLSLEEVEKAVEYLKKLLPKLSAEKLEILADVLEEKLPEFEPEKAEVVADLMVEALNLAEEKEE
# B16: GBRAP_128_3598 (protein)
# chain: SVEEVRKWTREQLEKMKEADEEERKEIAEELMARFLTLTPEEREAMVDTIKEEAPKLSEEDLEILADAARAARPLADAEAANLLADLEVELLNEAEEKEE
# B17: GBRAP_11_2722 (protein)
# chain: KKEELEKLAKRAEALAKEVAKLIKEGPDKEKIKKLQKEVEKLAEEAKKIGASEDVIKTLKIAAENLQKAIEDPENVEQHLKNAQAALRVAAGQLLLEAEE
# B18: GBRAP_160_4535 (protein)
# chain: SETLERFEKELRETAEEAIKLIKGETAEQRATIVDVEFGSFALELAEDPNASDEMVDVVLENRDKLVETILANPDLTDEELEELIRKTVEETIKELKKLF
# B19: GBRAP_83_6942 (protein)
# chain: KEEVVVAAPGDRIEEAAEIALDLQEEEGLEVVLEVLFTSEEREKVLEVLKKLIKEGFEGEILLLSLDRDKEGLEEAVEELKKKAEEEGVDVEVEGYVNEE
# B20: GBRAP_128_3575 (protein)
# chain: SSEATLAQARALIATIIAGDVATARAAARALVALLAAADPATAEQIVALVLAALPQLTVEKLETLADVFREARPQADPEVANLLAEIEVEALNEAVEKEE
# B21: GBRAP_9_7163 (protein)
# chain: LKELIDKIKEVVEDAFEEIKKVVPEEHRPVVDEERDKVLAELEKIAADPTITKEEAAERAKELLERAAEKIKAVVSPEIAKQVEAIVLTAKLEIEEIAEE
# B22: GBRAP_35_5541 (protein)
# chain: SSDETIVEMLVNTMEDLVLALPDVDNETFITLTEHLIRLAEDIVELKPKNLELIERAIEILERAIKIVKESDLPEETREELIKRLEELRKELEKIRKEVK
# B23: GBRAP_160_4791 (protein)
# chain: DERIERVARRFRESLEEALELAEGESPEERVAIFDVELGSAILELEEEGLLNDEEEEVAVEVRDELVARIAANPDLTPEELRALAEEAVERLRERLKELE
# B24: GBRAP_128_3396 (protein)
# chain: GQEEKVEKAKELIDEIVKSSVEEAEKLAREFAELFGTLDEESREEVAEYFESKLPELSAEKLDVVADVFREMRPKLDPYAANLMAGMEVDALNEAVEKEE
# B25: GBRAP_35_5599 (protein)
# chain: DTDQLAVDSLIDQIEATIAGIPEMDVDTLAAISNLLIKDAEELIKKEKNNLEALNRIAKALQALLDAIKKHHGDNATMQATAAKIQATIKEAEKVAQEIK
# B26: GBRAP_52_5943 (protein)
# chain: MHEKMRKLAEELLALALAGDEEGLEKLAKEIVENYSDEELLELARELGRLAKTLPVEDLDAAYRAVEVLIEELEEGGRSEELISEIEGIMARAMYERELA
# B27: GBRAP_80_6813 (protein)
# chain: MEEEIEKNLKEIAELDEELAKKVKEIVELARELGVPEEYIARFVKAVLELAKLDLEKANKLVEETLKKIKEAYAKGDQEDALATIVDAESEALLEVEELE
# B28: GBRAP_74_6527 (protein)
# chain: DAARLAALREAAEAGDVEAAVALAREIIATGSLAAIEEAARILVAFVERHRDSLTKEELLAVSDTLAELADRLMELGGDSETVIAVAQAAVELEKAALAL
# B29: GBRAP_52_6075 (protein)
# chain: SMEKIEEVANKIYEAIKEGNKEKALELLKEAIKNFSLEEITEILKLTAEKVASLGDEAHELFVDILDEGEDLLLEAGISEDDALLIVGDAEAALAKAVAA
# Target: GABARAP, O95166
# Assay: median log2 fold change of GCK-ALFA target abundance (FLAG IP / Myc IP barcode read proportion) (log2 ratio); each designed protein is fused to an ALFA-tag nanobody in HEK293 cells to bring the named protein to FLAG-tagged glucokinase (GCK); Myc marks an untargeted standard; higher = target protein stabilised (more abundant)
# Conditions: target protein: 3xFLAG-MCP-GCK-ALFA reporter; HEK293 landing pad (RPLP)
# In short: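 The readout is target abundance, the per-binder median log2 ratio of FLAG to Myc barcode read proportions. It came from HEK293 landing-pad cells carrying a recombined ALFA-nanobody-fused binder library, induced with 2 μg mL^−1 doxycycline and transfected with a plasmid for a FLAG-tagged target and a Myc-tagged standard. After 48 h, lysates were immunoprecipitated with anti-FLAG and anti-Myc, and circular RNA barcodes were reverse transcribed, amplified and sequenced. Each barcode needed a proportion of at least 10^−7 in both replicates and each binder at least 3 barcodes per replicate, a pseudocount of 10^−6 was added, and the replicates were pooled.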
# Chain of GABARAP, O95166 (O95166 whole entry, the tested form may be a part): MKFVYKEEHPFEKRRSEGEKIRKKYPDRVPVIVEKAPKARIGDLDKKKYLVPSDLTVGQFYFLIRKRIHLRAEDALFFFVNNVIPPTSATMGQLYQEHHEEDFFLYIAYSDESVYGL
row,Binder,median log2 fold change
1,B1,0.219
2,B2,0.105
3,B3,0.183
4,B4,0.119
5,B5,-0.00754
6,B6,0.209
7,B7,-0.169
8,B8,0.254
9,B9,0.0864
10,B10,-0.101
11,B11,-0.249
12,B12,-0.0628
13,B13,-0.00736
14,B14,-0.476
15,B15,0.314
16,B16,0.155
17,B17,0.218
18,B18,0.0259
19,B19,-0.0326
20,B20,0.0727
21,B21,0.154
22,B22,-0.12
23,B23,-0.0265
24,B24,-0.0209
25,B25,0.16
26,B26,-0.0198
27,B27,0.24
28,B28,0.122
29,B29,-0.583
